Reference: PubChem BioAssay (NCI)
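Following 48 hours of exposure in 96-well plates, responses at five concentrations were used to interpolate endpoints linearly. GI50 marks 50% less growth. Definition used: TGI = concentration required for complete inhibition of growth.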 Activity calls are given as the source filed them.

Tests used:
CCRF-CEM leukemia = test: inhibition of tumour cell growth, NCI panel, 48 h
SR leukemia = test: inhibition of tumour cell growth, NCI panel, 48 h

`NS(=O)(=O)c1ccc(-n2cc(/C=N/Nc3ccc(C(=O)O)cc3)c(-c3ccccc3)n2)cc1` was tested, and the GI50 (CCRF-CEM leukemia) was “inactive”, the TGI (CCRF-CEM leukemia) was 19.2 µM and the GI50 (SR leukemia) was “inactive”. For the same compound, the TGI (SR leukemia) was 7.31 µM.
